Laboratory results: patent publication US5798336A, “Antimicrobial peptides” (priority 1995, dated 1998)
Like-named read-outs stand apart in the source and are kept apart here. Not every detail of the peptide structures is certain; ends, links or a residue may be inferred. Some entries repeat one wording, which the source may state once for all of them. Where a SMILES comes first, the peptide text is derived from it. [ ]: non-standard residue; d: D form. The star is where a group is joined. Heptanoyl = CCCCCCC(=O)*; NMeA = CN[C@@H](C)C(=O)O

System: S. aureus strain 8325-4
Conditions: for Percent Survival: Table 4, third position replacements, organism not given; for antibacterial activity against S. aureus (in words): about 5×10^-4 M peptide in HBSS
[1] = Table 5, all peptides at 5×10^-4 M
[2] = Table 2, peptide about 5×10^-4 M, S. aureus strain 8325-4, % survival ± SEM
[3] = Table 3, all peptides at 5×10^-4 M

| SMILES | antibacterial activity against S. aureus (in words) | % Survival of S. aureus [1] [%] | % Survival of S. aureus [3] [%] | further results |
| --- | --- | --- | --- | --- |
| CC(C)C[C@H](NC(=O)[C@@H]1CCCN1C(=O)[C@@H](N)Cc1c[nH]cn1)C(=O)N[C@@H](Cc1ccc(O)cc1)C(=O)N[C@@H](CC(N)=O)C(=O)N[C@@H](CCC(N)=O)C(=O)N[C@@H](CCCNC(=N)N)C(=O)O [HPLYNQR] (H-HPLYNQR-OH) | lacked activity |  |  | Percent Survival: 100.8% |
| C[C@H](NC(=O)[C@H](CC(N)=O)NC(=O)[C@H](Cc1ccc(O)cc1)NC(=O)[C@H](C)NC(=O)[C@@H]1CCCN1C(=O)[C@@H](N)Cc1c[nH]cn1)C(=O)N[C@@H](CCCCN)C(=O)O [HPAYNAK] (H-HPAYNAK-OH) |  | 97 |  |  |
| C[C@H](NC(=O)[C@@H]1CCCN1C(=O)[C@@H](N)Cc1c[nH]cn1)C(=O)N[C@@H](Cc1ccc(O)cc1)C(=O)N[C@@H](CC(N)=O)C(=O)N[C@@H](CCC(N)=O)C(=O)N[C@@H](CCCNC(=N)N)C(=O)O [HPAYNQR] (H-HPAYNQR-OH) | exerted antibacterial action |  | 43.6 | % Survival of S. aureus [2]: 43.6%; Percent Survival: 40.3% |
| C[C@H](NC(=O)[C@@H]1CCCN1C(=O)[C@@H](N)Cc1c[nH]cn1)C(=O)N[C@@H](Cc1ccc(O)cc1)C(=O)N[C@@H](CC(N)=O)C(=O)N1CCC[C@H]1C(=O)N[C@@H](CCCNC(=N)N)C(=O)O [HPAYNPR] (H-HPAYNPR-OH) | reduced antibacterial activity | 87.5 |  |  |
| C[C@H](NC(=O)[C@H](CCC(N)=O)NC(=O)[C@@H]1CCCN1C(=O)[C@@H](N)Cc1c[nH]cn1)C(=O)N[C@@H](CC(N)=O)C(=O)N[C@@H](CCC(N)=O)C(=O)N[C@@H](CCCNC(=N)N)C(=O)O [HPQANQR] (H-HPQANQR-OH) | no antibacterial activity |  | 96.7 | % Survival of S. aureus [2]: 96.7% |
| C[C@H](NC(=O)[C@H](CCC(N)=O)NC(=O)[C@H](CC(N)=O)NC(=O)[C@H](Cc1ccc(O)cc1)NC(=O)[C@H](CCC(N)=O)NC(=O)[C@@H]1CCCN1C(=O)[C@@H](N)Cc1c[nH]cn1)C(=O)O [HPQYNQA] (H-HPQYNQA-OH) | exerted antibacterial action |  | 39.8 | % Survival of S. aureus [2]: 39.8% |
| C[C@H](NC(=O)[C@@H]1CCCN1C(=O)[C@@H](N)Cc1c[nH]cn1)C(=O)N[C@@H](Cc1ccccc1)C(=O)N[C@@H](CC(=O)O)C(=O)N[C@@H](CCCNC(=N)N)C(=O)N[C@@H](CCCCN)C(=O)O [HPAFDRK] (H-HPAFDRK-OH) |  | 102 |  |  |
| N=C(N)NCCC[C@H](NC(=O)[C@H](CCC(N)=O)NC(=O)[C@H](CC(N)=O)NC(=O)[C@H](Cc1ccccc1)NC(=O)[C@H](CCC(N)=O)NC(=O)[C@@H]1CCCN1C(=O)[C@@H](N)Cc1c[nH]cn1)C(=O)O [HPQFNQR] (H-HPQFNQR-OH) |  |  | 45.0 |  |
| C[C@H](NC(=O)[C@@H]1CCCN1C(=O)[C@@H](N)Cc1c[nH]cn1)C(=O)N[C@@H](Cc1ccc(O)cc1)C(=O)N[C@@H](CC(N)=O)C(=O)N(C)[C@@H](C)C(=O)N[C@@H](CCCCN)C(=O)O [HPAYNA^m K] (H-HPAYN[NMeA]K-OH) |  | 40.5 |  |  |
| C[C@H](NC(=O)[C@@H](N)Cc1c[nH]cn1)C(=O)N[C@@H](CCC(N)=O)C(=O)N[C@@H](Cc1ccc(O)cc1)C(=O)N[C@@H](CC(N)=O)C(=O)N[C@@H](CCC(N)=O)C(=O)N[C@@H](CCCNC(=N)N)C(=O)O [HAQYNQR] (H-HAQYNQR-OH) |  |  |  | % Survival of S. aureus [2]: 31.2% |
| C[C@H](NC(=O)[C@H](Cc1ccc(O)cc1)NC(=O)[C@H](CCC(N)=O)NC(=O)[C@@H]1CCCN1C(=O)[C@@H](N)Cc1c[nH]cn1)C(=O)N[C@@H](CCC(N)=O)C(=O)N[C@@H](CCCNC(=N)N)C(=O)O [HPQYAQR] (H-HPQYAQR-OH) | exerted antibacterial action |  |  | % Survival of S. aureus [2]: 30.6% |
| C[C@@H](O)[C@H](NC(=O)[C@H](CC(N)=O)NC(=O)[C@H](CCCCN)NC(=O)[C@H](CCC(N)=O)NC(=O)[C@@H]1CCCN1C(=O)[C@@H](N)Cc1c[nH]cn1)C(=O)N[C@@H](Cc1ccc(O)cc1)C(=O)O [HPQKNTY, reference compound] (H-HPQKNTY-OH) |  |  |  | % Survival of S. aureus [2]: 98.6% |
| C[C@H](NC(=O)[C@@H]1CCCN1C(=O)[C@@H](N)Cc1c[nH]cn1)C(=O)N[C@@H](Cc1ccc(O)cc1)C(=O)N[C@@H](CC(=O)O)C(=O)N[C@@H](CC(=O)O)C(=O)N[C@@H](CCCCN)C(=O)O [HPAYDDK] (H-HPAYDDK-OH) |  | 98 |  |  |
| CC(=O)N[C@@H](Cc1c[nH]cn1)C(=O)N1CCC[C@H]1C(=O)N[C@@H](CCC(N)=O)C(=O)N[C@@H](Cc1ccc(O)cc1)C(=O)N[C@@H](CC(N)=O)C(=O)N[C@@H](CCC(N)=O)C(=O)N[C@@H](CCCNC(=N)N)C(=O)O [^Ac HPQYNQR] (Ac-HPQYNQR-OH) |  |  | 31.0 | antibacterial action at increased ionic strength (in words) (S. aureus, HBSS pH 7.5, 0.17-0.21M NaCl, FIG. 6B): retained antibacterial activity |
| N=C(N)NCCC[C@H](NC(=O)[C@H](CCC(N)=O)NC(=O)[C@H](CC(N)=O)NC(=O)[C@H](Cc1ccc(O)cc1)NC(=O)[C@H](CCC(=O)O)NC(=O)[C@@H]1CCCN1C(=O)[C@@H](N)Cc1c[nH]cn1)C(=O)O [HPEYNQR] (H-HPEYNQR-OH) | comparable to that of HPAYNQR |  |  | Percent Survival: 45.3% |
| N=C(N)NCCC[C@H](NC(=O)[C@H](CCC(N)=O)NC(=O)[C@H](CC(N)=O)NC(=O)[C@H](Cc1ccc(O)cc1)NC(=O)[C@H](CC(N)=O)NC(=O)[C@@H]1CCCN1C(=O)[C@@H](N)Cc1c[nH]cn1)C(=O)O [HPNYNQR] (H-HPNYNQR-OH) | comparable to that of HPAYNQR |  |  | Percent Survival: 42.9% |
| C[C@H](NC(=O)[C@H](CC(N)=O)NC(=O)[C@H](Cc1ccc(O)cc1)NC(=O)[C@H](CC(=O)O)NC(=O)[C@@H]1CCCN1C(=O)[C@@H](N)Cc1c[nH]cn1)C(=O)N[C@H](C(=O)O)[C@@H](C)O [HPDYNAT] (H-HPDYNAT-OH) |  | 98 |  |  |
| NC(=O)CC[C@H](NC(=O)[C@H](CC(N)=O)NC(=O)[C@H](Cc1ccc(O)cc1)NC(=O)[C@H](CCC(N)=O)NC(=O)[C@@H]1CCCN1C(=O)[C@@H](N)Cc1c[nH]cn1)C(N)=O [HPQYNQ-amide] (H-HPQYNQ-NH2) | had antibacterial activity |  | 32.8 |  |
| N=C(N)NCCC[C@H](NC(=O)[C@H](CCC(N)=O)NC(=O)[C@H](CC(N)=O)NC(=O)[C@H](Cc1ccc(O)cc1)NC(=O)[C@H](CCC(N)=O)NC(=O)[C@@H]1CCCN1C(=O)[C@H](N)Cc1c[nH]cn1)C(=O)O [D-HPQYNQR] (H-[dH]PQYNQR-OH) |  |  | 98.6 |  |
| NCCCC[C@H](NC(=O)[C@@H]1CCCN1C(=O)[C@H](CC(N)=O)NC(=O)[C@H](Cc1ccc(O)cc1)NC(=O)[C@H](CCC(N)=O)NC(=O)[C@@H]1CCCN1C(=O)[C@@H](N)Cc1c[nH]cn1)C(=O)O [HPQYNPK] (H-HPQYNPK-OH) |  | 95.1 |  |  |
| C[C@H](NC(=O)[C@H](CC(N)=O)NC(=O)[C@H](Cc1ccc(O)cc1)NC(=O)[C@H](CCC(N)=O)NC(=O)[C@@H]1CCCN1C(=O)[C@@H](N)Cc1c[nH]cn1)C(=O)N[C@@H](CCCNC(=N)N)C(=O)O [HPQYNAR] (H-HPQYNAR-OH) | reduced antibacterial activity |  |  | % Survival of S. aureus [2]: 51.2% |
| NC(=O)CC[C@H](NC(=O)[C@@H]1CCCN1C(=O)[C@@H](N)Cc1c[nH]cn1)C(=O)N[C@@H](Cc1ccc(O)cc1)C(=O)N[C@@H](CC(N)=O)C(N)=O [HPQYN-amide] (H-HPQYN-NH2) | inactive |  | 98.5 |  |
| CCCCCCC(=O)N[C@@H](Cc1c[nH]cn1)C(=O)N1CCC[C@H]1C(=O)N[C@@H](CCC(N)=O)C(=O)N[C@@H](Cc1ccc(O)cc1)C(=O)N[C@@H](CC(N)=O)C(=O)N[C@@H](CCC(N)=O)C(=O)N[C@@H](CCCNC(=N)N)C(=O)O [^Hep HPQYNQR] (Heptanoyl-HPQYNQR-OH) |  |  | 97.0 |  |
| C[C@H](NC(=O)[C@@H]1CCCN1C(=O)[C@@H](N)Cc1c[nH]cn1)C(=O)N[C@@H](Cc1ccc(O)cc1)C(=O)N[C@@H](CC(N)=O)C(=O)N1CCC[C@H]1C(N)=O [HPAYNP-amide] (H-HPAYNP-NH2) |  | 42.5 |  |  |
| N[C@@H](Cc1ccc(O)cc1)C(=O)N1CCC[C@H]1C(=O)N[C@@H](CS)C(=O)N[C@@H](Cc1ccc(O)cc1)C(=O)N[C@@H](CC(=O)O)C(=O)N[C@@H](CCC(=O)O)C(=O)N[C@@H](Cc1ccc(O)cc1)C(=O)O [YPCYDEY] (H-YPCYDEY-OH) |  | 99.5 |  |  |
| C[C@H](NC(=O)[C@@H]1CCCN1C(=O)[C@H](CC(=O)O)NC(=O)[C@H](Cc1ccc(O)cc1)NC(=O)[C@H](CS)NC(=O)[C@@H]1CCCN1C(=O)[C@@H](N)Cc1ccc(O)cc1)C(=O)O [YPCYDPA] (H-YPCYDPA-OH) |  | 102 |  |  |
| NCCCC[C@H](NC(=O)[C@@H]1CCCN1C(=O)[C@H](CC(N)=O)NC(=O)[C@H](Cc1ccc(O)cc1)NC(=O)[C@H](CC(=O)O)NC(=O)[C@@H]1CCCN1C(=O)[C@@H](N)Cc1c[nH]cn1)C(=O)O [HPDYNPK] (H-HPDYNPK-OH) | had some antibacterial activity | 62 |  |  |
| C[C@H](NC(=O)[C@@H]1CCCN1C(=O)[C@@H](N)Cc1c[nH]cn1)C(=O)N[C@@H](Cc1ccc(O)cc1)C(=O)N[C@@H](CC(N)=O)C(=O)N1CCC[C@H]1C(=O)N[C@@H](CCCCN)C(=O)O [HPAYNPK] (H-HPAYNPK-OH) |  | 36 |  |  |
| NC(=O)C[C@H](NC(=O)[C@H](Cc1ccc(O)cc1)NC(=O)[C@H](CC(=O)O)NC(=O)[C@@H]1CCCN1C(=O)[C@@H](N)Cc1c[nH]cn1)C(=O)N1CCC[C@H]1C(=O)N[C@@H](CC(=O)O)C(=O)O [HPDYNPD] (H-HPDYNPD-OH) |  | 104 |  |  |
| N=C(N)NCCC[C@H](NC(=O)[C@@H]1CCCN1C(=O)[C@H](CC(N)=O)NC(=O)[C@H](Cc1ccc(O)cc1)NC(=O)[C@H](CCC(N)=O)NC(=O)[C@@H]1CCCN1C(=O)[C@@H](N)Cc1c[nH]cn1)C(=O)O [HPQYNPR] (H-HPQYNPR-OH) |  | 78.7 |  |  |
